{"source": "paper PMC4336329", "about": "(PLoS ONE, 2015)", "note": "In all, about 310,000 compounds went through this assay and about 2,200 (0.71%) showed an effect of 50% or more. The effect is printed as a negative number. This is one part of the list."}
{"biological_target": "human ether-à-go-go-related gene (hERG) potassium channel (human, UniProt Q12809)", "sequence (Q12809 whole entry, looked up)": "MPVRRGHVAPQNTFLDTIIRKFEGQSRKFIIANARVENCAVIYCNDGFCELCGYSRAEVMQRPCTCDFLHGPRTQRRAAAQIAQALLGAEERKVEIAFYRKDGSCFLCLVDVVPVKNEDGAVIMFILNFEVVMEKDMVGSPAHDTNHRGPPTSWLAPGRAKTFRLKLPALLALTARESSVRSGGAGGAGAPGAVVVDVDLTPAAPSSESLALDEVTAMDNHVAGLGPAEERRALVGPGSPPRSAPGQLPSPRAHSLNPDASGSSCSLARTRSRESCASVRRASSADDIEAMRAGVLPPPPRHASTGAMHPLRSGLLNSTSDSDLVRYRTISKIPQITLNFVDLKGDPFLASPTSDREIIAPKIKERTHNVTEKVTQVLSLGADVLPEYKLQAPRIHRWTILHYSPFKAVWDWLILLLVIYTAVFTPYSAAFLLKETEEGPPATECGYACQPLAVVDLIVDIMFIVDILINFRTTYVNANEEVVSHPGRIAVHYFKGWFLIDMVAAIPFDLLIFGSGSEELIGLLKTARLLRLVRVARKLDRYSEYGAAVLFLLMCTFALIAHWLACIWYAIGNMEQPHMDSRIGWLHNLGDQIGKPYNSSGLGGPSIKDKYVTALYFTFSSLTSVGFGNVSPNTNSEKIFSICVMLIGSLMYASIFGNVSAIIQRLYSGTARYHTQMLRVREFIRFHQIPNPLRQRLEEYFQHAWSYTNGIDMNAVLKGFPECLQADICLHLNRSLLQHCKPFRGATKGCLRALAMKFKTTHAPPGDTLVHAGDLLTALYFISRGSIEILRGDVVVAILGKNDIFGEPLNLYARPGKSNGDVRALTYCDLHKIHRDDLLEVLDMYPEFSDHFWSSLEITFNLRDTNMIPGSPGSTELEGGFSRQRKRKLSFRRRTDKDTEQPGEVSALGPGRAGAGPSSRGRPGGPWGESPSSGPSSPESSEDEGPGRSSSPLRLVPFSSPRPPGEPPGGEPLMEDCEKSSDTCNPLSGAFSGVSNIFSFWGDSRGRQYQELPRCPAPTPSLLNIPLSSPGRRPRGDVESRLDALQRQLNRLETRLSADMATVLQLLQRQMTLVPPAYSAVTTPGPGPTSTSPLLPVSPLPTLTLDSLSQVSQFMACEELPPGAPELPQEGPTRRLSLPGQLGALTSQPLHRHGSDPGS", "assay": "primary screen, population patch clamp on CHO cells stably expressing hERG", "units": {"hERG current change (%, negative = inhibition) at 1uM": "%"}}
{"smiles": "Cc1ccc(CC2SC(=O)NC2=O)cc1Cl", "note": "(centres unmarked)", "hERG current change (%, negative = inhibition) at 1uM": 11.2}
{"smiles": "O=C(Nc1ccc(SC(F)F)cc1)c1ccc2c(=O)n3c(nc2c1)CCC3", "hERG current change (%, negative = inhibition) at 1uM": -2.51}
{"smiles": "CS(=O)(=O)N(CC(=O)NCCSCc1cccc(Cl)c1)c1ccc(F)cc1", "hERG current change (%, negative = inhibition) at 1uM": 8.25}
{"smiles": "COc1ccccc1N1CCN(C(=O)CCc2ccc(S(=O)(=O)NC(C)C)cc2)CC1", "hERG current change (%, negative = inhibition) at 1uM": -2.65}
{"smiles": "CCN(c1ccccc1)S(=O)(=O)c1ccc(Cl)c(NC(=O)COC(=O)c2cccc(OC)c2O)c1", "hERG current change (%, negative = inhibition) at 1uM": 5.6}
{"smiles": "CC1(C)CC(=O)C(CC2=C(O)CC(C)(C)CC2=O)=C(O)C1", "hERG current change (%, negative = inhibition) at 1uM": 0.0164}
{"smiles": "Cc1ccc(CNC(=O)CCC(=O)N2CC(C)Oc3ccc(Cl)cc32)cc1", "note": "(centres unmarked)", "hERG current change (%, negative = inhibition) at 1uM": -28.1}
{"smiles": "COc1ccc(NC(=O)c2c(NC(=O)CNCc3ccco3)sc3c2CCC3)c(OC)c1", "hERG current change (%, negative = inhibition) at 1uM": 9.6}
{"smiles": "CCCCN(CC)CCNC(=O)c1cn(C)c(=O)c2c1c1ccccc1n2C", "hERG current change (%, negative = inhibition) at 1uM": 10.3}
{"smiles": "CS(=O)c1ccccc1COC(=O)Nc1cccc(Cl)c1", "note": "(centres unmarked)", "hERG current change (%, negative = inhibition) at 1uM": -14.7}
{"smiles": "CCN(Cc1ccccc1)C(=O)CCc1nnc(CCCc2ccccc2)o1", "hERG current change (%, negative = inhibition) at 1uM": 12.2}
{"smiles": "CCc1ccc(NC(=O)[C@H](Cc2c[nH]c3ccccc23)NC(=O)[C@@H]2Cc3ccccc3CN2)cc1", "hERG current change (%, negative = inhibition) at 1uM": 6.43}
{"smiles": "CC(C)(C)c1ccc(S(=O)(=O)Nc2ccc(Cc3ccncc3)cc2)cc1", "hERG current change (%, negative = inhibition) at 1uM": 0.464}
{"smiles": "CCC(C)NC(=O)c1ccccc1NC(=O)/C(=C/c1ccc(OC)cc1)c1ccccc1", "note": "(centres unmarked)", "hERG current change (%, negative = inhibition) at 1uM": 4.34}
{"smiles": "COC(=O)c1cn(-c2ccccc2)nc1-c1ccc(OC)cc1", "hERG current change (%, negative = inhibition) at 1uM": 12.2}
{"smiles": "Cc1cccc(C)c1NC(=O)CNC(=O)c1ccncc1", "hERG current change (%, negative = inhibition) at 1uM": 10.5}
{"smiles": "CCCOc1ccc(Cn2c(O)cc(=O)[nH]c2=O)cc1", "hERG current change (%, negative = inhibition) at 1uM": 8.04}
{"smiles": "COc1cc(NS(=O)(=O)c2ccc(NC(=S)NC(=O)C(C)(C)C)cc2)nc(OC)n1", "hERG current change (%, negative = inhibition) at 1uM": -2.53}
{"smiles": "CCOc1ccc(N2C(=O)NC(Cc3c[nH]c4ccccc34)C2=O)cc1", "note": "(centres unmarked)", "hERG current change (%, negative = inhibition) at 1uM": 1.64}
{"smiles": "Cc1ccnc(NC(=O)c2ccc(N3C(=O)CCC3=O)cc2)c1", "hERG current change (%, negative = inhibition) at 1uM": 12.7}
{"smiles": "CCOC(=O)N1CCC(Nc2ccc3nnc(-c4ccccc4)n3n2)CC1", "hERG current change (%, negative = inhibition) at 1uM": -29.9}
{"smiles": "CN(C)CCN(C(=O)c1ccccc1Cl)c1nc2c(Cl)cccc2s1.Cl", "hERG current change (%, negative = inhibition) at 1uM": 25.5}
{"smiles": "COC(=O)c1cccc(S(=O)(=O)N2CCC(NC(=O)Nc3cccc(F)c3)CC2)c1", "hERG current change (%, negative = inhibition) at 1uM": -2.19}
{"smiles": "O=c1[nH]cnc2sc(-c3ccccc3)cc12", "hERG current change (%, negative = inhibition) at 1uM": 6.92}
{"smiles": "Cc1ccc(-c2c(NC(=O)C(C)C)n(C)c3ccccc3c2=O)cc1", "hERG current change (%, negative = inhibition) at 1uM": 9.31}
{"smiles": "COc1cccc(CC(=O)Nn2c(C)nc3ccccc3c2=O)c1", "hERG current change (%, negative = inhibition) at 1uM": -5.12}
{"smiles": "CCc1cccc(NS(=O)(=O)c2ccc3c(c2)CCC(=O)N3)c1", "hERG current change (%, negative = inhibition) at 1uM": 1.27}
{"smiles": "CCOc1cc(C(=O)OC(C)C(=O)Nc2ccc(S(N)(=O)=O)cc2)ccc1OCC(=O)N1CCOCC1", "note": "(centres unmarked)", "hERG current change (%, negative = inhibition) at 1uM": 1.09}
{"smiles": "O=C(CSc1nc2cc(S(=O)(=O)N3CCOCC3)ccc2o1)NC1CCCc2ccccc21", "note": "(centres unmarked)", "hERG current change (%, negative = inhibition) at 1uM": 6.91}
{"smiles": "COc1ccc(CNC(=O)CS(=O)CC(=O)O)cc1OC", "note": "(centres unmarked)", "hERG current change (%, negative = inhibition) at 1uM": 8.89}
{"smiles": "CC(=O)Oc1ccc(N2C(=O)C3C(C2=O)C2C=CC3C23CC3)cc1[N+](=O)[O-]", "note": "(centres unmarked)", "hERG current change (%, negative = inhibition) at 1uM": 10.6}
{"smiles": "CCOC(=O)c1cc[nH]c1CC(=O)NC", "hERG current change (%, negative = inhibition) at 1uM": 7.15}
{"smiles": "COc1cccc(NC(=O)CN(C)C(=O)c2ccc(N3CCOCC3)c([N+](=O)[O-])c2)c1", "hERG current change (%, negative = inhibition) at 1uM": 7.24}
{"smiles": "CC(=O)Nc1ccc(NC(=O)c2c(C)nc3ccccn23)cc1", "hERG current change (%, negative = inhibition) at 1uM": 19.9}
{"smiles": "O=C(N/N=C/c1cc([N+](=O)[O-])ccc1O)NC12CC3CC(CC(C3)C1)C2", "hERG current change (%, negative = inhibition) at 1uM": 13.9}
{"smiles": "O=C1c2ccccc2S(=O)(=O)c2cc(C(=O)N3CCC(N4CCCC4)CC3)ccc21", "hERG current change (%, negative = inhibition) at 1uM": 9.9}
{"smiles": "O=C(Cc1cccs1)NCc1cccc(C(F)(F)F)c1", "hERG current change (%, negative = inhibition) at 1uM": 13.6}
{"smiles": "Cc1cccc(C(=O)NC(=S)N2CCN(C(=S)NC(=O)c3cccc(C)c3)CC2)c1", "hERG current change (%, negative = inhibition) at 1uM": 7.76}
{"smiles": "O=C(COc1ccccc1)NCC1CCCO1", "note": "(centres unmarked)", "hERG current change (%, negative = inhibition) at 1uM": 12.8}
{"smiles": "CS(=O)(=O)c1cccc(C(=O)NCc2ccc(F)cc2)c1", "hERG current change (%, negative = inhibition) at 1uM": 4.52}
{"smiles": "O=C(NCCC1CC1(Cl)Cl)Nc1ccccc1", "note": "(centres unmarked)", "hERG current change (%, negative = inhibition) at 1uM": 10.2}
{"smiles": "COc1ccc(NC(=S)NCCC2=CCCCC2)cc1OC", "hERG current change (%, negative = inhibition) at 1uM": 12.6}
{"smiles": "Cc1ccc2cccnc2c1NC(=S)NC(=O)c1ccccc1", "hERG current change (%, negative = inhibition) at 1uM": 14.9}
{"smiles": "Cc1ccc(N2N=C(c3ccc(F)cc3)CC2c2ccco2)cc1", "note": "(centres unmarked)", "hERG current change (%, negative = inhibition) at 1uM": 3.84}
